# Data from the supplement of paper PMC12217912.
# The other results are listed elsewhere or left out. The full chains were built here from the parent and the listed change. Inactive controls read about 0.05.
# B1: TEV protease; numbered along this chain (parent)
# chain: MGESLFKGPRDYNPISSSICHLTNESDGHTTSLYGIGFGPFIITNKHLFRRNNGTLVVQSLHGVFKVKDTTTLQQHLVDGRDMIIIRMPKDFPPFPQKLKFREPQREERICLVTTNFQTKSMSSMVSDTSCTFPSGDGIFWKHWIQTKDGQCGSPLVSTRDGFIVGIHSASNFTNTNNYFTSVPKNFMELLTNQEAQQWVSGWRLNADSVLWGGHKVFMVKPEEPFQPVKEATQL
# Variants of: B1
# Assay: raw area under fraction-flipped curve 0-4 h after induction (AUC4h, not background-subtracted), DNA-recorder readout of cleavage of the substrate (dimensionless); higher = more cleavage of the substrate by the protease variant
# Settings: temperature: 34 °C; time window: 0-4 h after rhamnose induction
# Protocol: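 In vivo DNA recorder in E. coli TOP10(DE3) ΔrhaA at 34 °C. Each TEVp single-site mutant (parent TEVp 0) is paired with a single-site variant of the 7-mer TEVs (canonical ENLYFQ|S). The substrate sits between flexible linkers in a Bxb1-sfGFP-TEVs-SsrA fusion, so cleavage stabilises Bxb1 and speeds flipping of a recombination array, read by NGS. The value is the raw area under the fraction-flipped curve over 0-4 h after rhamnose induction (AUC4h), with ≥20 reads per time point. It is not background-subtracted; inactive controls average about 0.047.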
# 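Further: Bxb1 expression induced with 0.2% (w/v) L-rhamnose at OD600 near 0.5, cultures sampled hourly, flipped fraction per protease–substrate barcode pair counted by paired-end Illumina sequencing.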
Variant,area with substrate ENLAFQS,area with substrate ENLCFQS,area with substrate ENLDFQS,area with substrate ENLEFQS,area with substrate ENLFFQS,area with substrate ENLGFQS,area with substrate ENLKFQS,area with substrate ENLNFQS,area with substrate ENLPFQS,area with substrate ENLQFQS,area with substrate ENLRFQS,area with substrate ENLSFQS,area with substrate ENLTFQS,area with substrate ENLVFQS,area with substrate ENLIFQS,area with substrate ENLMFQS,area with substrate ENLWFQS,area with substrate ENLHFQS,area with substrate ENLLFQS
S135M,0.0715,0.0603,0.07,0.0619,0.0528,0.0675,0.0786,0.0409,0.0522,0.0494,0.0623,0.0592,0.0498,0.031,–,–,–,–,–
S135T,0.0462,–,0.0622,0.0626,0.0803,–,0.0635,0.0764,0.0654,0.0651,0.0543,0.0514,–,–,0.0652,0.0622,0.054,–,–
S135E,0.0613,0.0629,0.0706,0.0632,–,–,0.0626,0.0686,–,0.061,0.0438,–,–,–,–,0.0438,–,0.0577,–
T174M,0.0669,0.0591,0.0607,–,0.12,–,–,0.0367,–,–,0.0493,0.0562,–,–,0.0834,–,–,–,0.0704
S169L,0.0644,–,–,0.0566,–,0.0613,–,–,–,–,–,–,–,–,–,–,–,–,–
S169V,0.0491,–,0.0566,0.0484,0.0786,0.0511,0.0812,–,0.0561,0.0546,–,–,–,–,0.0866,–,–,0.0587,–
S171N,0.0669,0.0597,0.055,0.064,0.0576,–,0.0748,0.0692,–,0.0559,–,0.0694,–,0.0646,0.0592,–,–,0.0629,–
D161L,0.043,0.0505,0.048,–,0.0579,0.0591,0.0508,0.0556,0.0672,–,0.0579,0.0424,–,0.0559,0.0527,0.064,0.0431,0.0559,–
V165Q,0.0548,–,0.0515,0.0425,0.093,–,0.0621,0.0504,0.0585,–,–,0.0443,–,0.0462,–,–,0.0562,0.0663,0.0578
V165H,0.0586,–,–,–,0.0374,–,–,0.0476,0.041,–,0.0264,0.0409,–,–,0.0492,–,–,0.0458,0.04
W199T,0.0643,0.0578,0.0626,0.0818,0.0846,0.0684,0.0658,0.0778,0.0692,–,0.0678,0.0459,–,–,–,–,0.0692,0.0655,0.0749
W199A,0.0435,–,0.0641,–,0.0568,–,0.0623,0.0563,0.0654,0.0756,–,–,–,–,–,–,0.0592,0.0512,–
Q151K,0.0659,0.0617,0.071,0.068,0.0477,0.0536,–,0.0563,0.0546,–,0.0637,0.0558,0.064,0.0729,–,–,0.0275,–,0.0517
D149F,0.0661,0.0443,0.0625,0.057,0.0991,0.0554,–,0.111,0.0677,–,–,0.0676,–,–,0.084,–,0.0628,0.062,–
G136I,0.0598,0.103,0.053,–,0.0806,–,0.081,0.0519,–,0.0819,0.0692,0.0728,–,–,0.0848,–,–,–,0.069
W144E,0.0646,0.0672,–,–,0.0756,0.0633,0.0696,–,0.0512,0.0643,–,0.0878,–,–,–,–,0.0591,0.0601,–

Variant,area with substrate ENLAFQS,area with substrate ENLCFQS,area with substrate ENLDFQS,area with substrate ENLEFQS,area with substrate ENLFFQS,area with substrate ENLGFQS,area with substrate ENLKFQS,area with substrate ENLNFQS,area with substrate ENLPFQS,area with substrate ENLQFQS,area with substrate ENLRFQS,area with substrate ENLSFQS,area with substrate ENLTFQS,area with substrate ENLVFQS,area with substrate ENLIFQS,area with substrate ENLMFQS,area with substrate ENLWFQS,area with substrate ENLHFQS,area with substrate ENLLFQS
T181D,0.0588,0.0549,0.0563,–,–,–,0.0547,–,–,–,–,0.051,–,–,0.0616,0.0572,–,–,–
T181Q,0.0804,0.0451,0.0668,0.0631,0.0546,–,–,–,–,–,0.0504,–,–,–,–,–,0.0672,0.0429,–
K185R,0.101,–,0.0697,0.0488,0.0905,–,0.107,0.0647,0.0634,–,–,0.0722,–,–,0.0843,–,–,0.0819,–
K185Y,0.0501,0.0759,0.0502,0.0585,0.0779,–,0.069,0.0818,0.0562,0.0783,0.075,0.0586,–,0.17,–,–,0.0687,0.0795,0.0686
H143E,0.0651,0.0434,0.0414,–,0.0702,–,0.0648,0.0585,0.0708,0.0669,0.0675,0.0576,–,0.0608,0.0391,–,–,0.0508,0.0514
I145S,0.0567,0.0799,0.0626,0.0415,–,–,0.0806,0.0593,0.0708,0.108,0.0963,0.0234,–,0.0814,0.104,–,0.0924,–,0.0643
V157H,0.0479,0.0558,0.054,0.0425,0.06,0.0589,0.0431,0.0584,0.0504,–,0.0652,0.0528,–,–,–,–,0.0526,0.0513,0.061
G153H,0.0513,0.0448,0.0475,–,0.0378,0.0436,0.0595,0.0385,0.0429,0.041,–,0.0477,–,–,0.045,0.0045,–,–,–
G153A,0.0512,0.0639,0.112,0.0551,0.0704,–,0.0639,0.0834,–,–,–,0.0456,–,–,–,–,–,0.0539,–
Y179P,0.0269,0.0376,0.0493,0.0506,0.0559,–,0.0547,0.0513,0.0505,–,0.0615,0.059,–,–,–,–,–,0.0557,0.0622
Y179G,0.054,–,–,–,0.0571,–,–,0.0637,0.0377,–,0.0673,–,–,–,–,–,–,0.0588,–
M188G,0.0667,0.0768,0.0549,–,0.107,–,0.0714,0.0595,–,–,–,–,0.0644,–,0.077,0.0767,–,0.0837,–
M188F,0.0583,–,0.0647,–,0.123,–,0.0826,0.063,0.0743,0.0545,–,0.0589,–,–,–,–,–,–,–
M188Q,0.0445,0.0629,0.0743,–,0.0784,–,–,–,0.0645,–,–,0.0561,–,–,0.105,–,0.0787,0.0627,0.0595
P155T,0.0401,0.0486,0.0554,0.0667,–,0.0128,0.0525,0.0637,0.0592,0.0406,0.0532,0.049,–,–,–,–,–,0.0601,–
